Results on 14 compounds are retold here after ChEMBL document CHEMBL1148295, “Evaluation and comparison of 3D-QSAR CoMSIA models for CDK1, CDK5, and GSK-3 inhibition by paullones” (J Med Chem, 2004).

The target of experiment [1] is Cyclin-dependent kinase 5/CDK5 activator 1 (Homo sapiens, UniProt Q00535). It counts as protein-complex assay.
Experiment [2] concerns the target Cyclin-dependent kinase 1/cyclin B (Homo sapiens, UniProt O95067+P06493+P14635+Q8WWL7). It counts as cell-based, Marthasterias glacialis, Oocyte.

As for `COc1ccc2c(c1)NC(=O)Cc1c-2[nH]c2ccc(C(F)(F)F)cc12`, the results for the IC50 in experiment [1] and in experiment [2] were 2.2 µM and 0.7 µM, respectively.
In experiment [2], `CC(C)(C)OC(=O)n1c2c(c3cc(Br)ccc31)CC(=O)Nc1ccccc1-2` had an IC50 of 70 µM.
On the same count and under the same terms, then `CCn1c2c(c3cc(Br)ccc31)CC(=O)Nc1ccccc1-2`, with 23 µM.
As to `NCC(=O)c1ccc2[nH]c3c(c2c1)CC(=O)Nc1ccccc1-3`, the IC50 in experiment [1] was 5.5 µM.
For `O=C1Cc2c([nH]c3cc(Cl)cc(Cl)c23)-c2ccccc2N1`, in experiment [2], it took 2.5 µM to reach half-maximal inhibition (IC50).
For the compound `O=C1Cc2c([nH]c3ccc(Br)cc23)-c2ccc(O)cc2N1`, the IC50 in experiment [1] was 0.83 µM; in experiment [2], 0.6 µM.
Take `Nc1ccc2[nH]c3c(c2c1)CC(=O)Nc1ccccc1-3`: the values for the IC50 in experiment [1] and in experiment [2] were 30 µM and 20 µM, respectively.
With `N#Cc1ccc2c(c1)-c1[nH]c3ccccc3c1CC(=O)N2`, the figures for the IC50 in experiment [1] and in experiment [2] were 450 µM and 3.3 µM, respectively.
Consider `COc1ccc2c(c1)-c1[nH]c3ccc([N+](=O)[O-])cc3c1CC(=O)N2`, for which the IC50 in experiment [1] is 0.07 µM; in experiment [2], 0.08 µM.
Take `C=C(C)n1c2c(c3cc(Br)ccc31)CC(=O)Nc1ccccc1-2`: in experiment [2], half-maximal inhibition (IC50) required 60 µM.
As for `COc1ccc2c(c1)NC(=O)Cc1c-2[nH]c2ccc(C#N)cc12`, the IC50 in experiment [1] was 1 µM; in experiment [2], 1.2 µM.
For `O=C1Cc2c([nH]c3ccccc23)-c2cc(I)ccc2N1`, in experiment [2], the IC50 was 3.7 µM.
`CC(=O)OCn1c2c(c3cc(Br)ccc31)CC(=O)Nc1ccccc1-2` showed an IC50 in experiment [2] of 1.4 µM.
For `NCCCCOc1ccc2c(c1)NC(=O)Cc1c-2[nH]c2ccc(Br)cc12`, the IC50 in experiment [1] was 420 µM; in experiment [2] it was 0.7 µM.

As a reminder, the IC50 is the concentration that gives 50% inhibition. Read a low IC50 as greater potency.
